{
  "source": "PubChem BioAssay AID1345083",
  "about": "(National Center for Advancing Translational Sciences (NCATS), 2018)",
  "note": "Out of some 94,000 compounds screened, about 6,200 (6.6%) were called active. This list was built around the results that the source calls inconclusive (neither active nor inactive); the mix of calls is not that of the screen. Calls come from the whole dose curve; as a rule, active = well fitted inhibition curve with a large enough effect; inconclusive = small, poorly fitted or top-dose-only effect; inactive = flat fitted curve, though single readings scatter. Where the call is inconclusive, the potency comes from a doubtful curve fit. Potency is the fitted concentration of half-maximal effect; tags give direction and shape of the fitted curve.",
  "data": [
    {"experiment": "Cytotoxic Profiling in HEK 293 Cell Line of Diverse Libraries Using Quantitative High-Throughput Screening; note: nearly all actives have a fitted effect of over 60% in size", "settings": "HEK 293 viability, ATP luminescence (CellTiter-Glo), 48-72 h; series mostly up to 115 µM", "summary_of_the_method": "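HEK 293 cells seeded at 250 cells/well were exposed to compound for 48 or 72 hr at 37 degree Celsius. Viability taken as ATP content by CellTiter-Glo luminescence.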", "values": [
      {"smiles": "Cc1noc(C)c1S(=O)(=O)N1CCC2(CC1)N(c1ccccc1)C(=O)CS2=O", "note": "(centres undefined)", "Potency": "inactive"},
      {"smiles": "O=[S+]([O-])(c1cccs1)N1CCc2nc(-c3ccc(Cl)cc3)nc(-c3ccccc3)c2C1", "Potency": "inconclusive: 63.1 µM [inhibitor, partial curve, poor fit]"},
      {"smiles": "O=C(COc1ccccc1)N1CCOC[C@H](Oc2ccc(C(F)(F)F)cc2)C1", "Potency": "inconclusive: 100 µM [inhibitor, partial curve]"},
      {"smiles": "CCCCn1c(=O)c(C(=O)N2CCN(C(=O)c3ccc(F)cc3)CC2)nc2cccnc21", "Potency": "inactive"},
      {"smiles": "CN(C(=O)[C@@H]1CCCN1c1ccnc2ccnn12)c1ccccc1", "Potency": "inconclusive: 100 µM [inhibitor, partial curve, poor fit]"},
      {"smiles": "N#Cc1ccc(C(=O)N2CCC(n3cc(-c4nc(-c5ccccc5)no4)nn3)CC2)cc1", "Potency": "inconclusive: 35.5 µM [inhibitor, partial curve, poor fit]"},
      {"smiles": "Cn1cc(CN2Cc3ccc(C(=O)Nc4ccc(F)cc4)cc3OCC2=O)cn1", "Potency": "inconclusive: 100 µM [inhibitor, partial curve, poor fit]"},
      {"smiles": "O=C(c1n[nH]c2c1CCCC2)N1CCc2nc3cc[nH]n3c(=O)c2C1", "Potency": "inactive"},
      {"smiles": "CN1CC(=O)N(C2CCCNC2)Cc2c(NCCO)ncnc21", "note": "(centres undefined)", "Potency": "inactive"},
      {"smiles": "Cc1noc2c(N3CC(O)C3)cc(-c3ccc(F)cc3)nc12", "Potency": "inconclusive: 112 µM [inhibitor, single point]"},
      {"smiles": "COc1ccc(C(=O)N2CCC(C(=O)N3CCC4(CC3)CC(=O)Nc3ccccc3O4)C2)cc1", "note": "(centres undefined)", "Potency": "inactive"},
      {"smiles": "O=C(NCc1ccc(F)cc1)N1CCCC(Cc2noc(-c3ccccn3)n2)C1", "note": "(centres undefined)", "Potency": "inactive"},
      {"smiles": "Cc1ccc(C(=O)Nc2ccc3c(N4CCCCC4)ncnc3c2)s1", "Potency": "inconclusive: 11.2 µM [inhibitor, full curve, poor fit]"},
      {"smiles": "Cn1c(C(=O)Nc2ccc3c(c2)OCO3)cc2c1CCN(Cc1cccc(F)c1)C2", "Potency": "inconclusive: 25.1 µM [inhibitor, full curve]"},
      {"smiles": "CCc1ccc(NC(=O)COc2ccc(-c3nnc4n3CCCC4)cc2)cc1", "Potency": "inactive"},
      {"smiles": "COc1ccc(-c2cn3c(n2)N(C(=O)Cn2ccnc2)CCC3)cc1", "Potency": "inconclusive: 39.8 µM [inhibitor, full curve, poor fit]"},
      {"smiles": "COc1ccc(N2CC(c3noc(-c4ccc(C)c(C)c4)n3)CC2=O)cc1", "note": "(centres undefined)", "Potency": "inconclusive: 100 µM [inhibitor, single point]"},
      {"smiles": "Fc1ccc(-c2cc(CC3(NCc4ccccc4F)COC3)no2)cc1", "Potency": "inconclusive: 39.8 µM [inhibitor, partial curve, poor fit]"},
      {"smiles": "Cc1ccc(C)c(NC(=O)Cn2c(-c3ccccc3)nc(C)cc2=O)c1", "Potency": "inconclusive: 39.8 µM [inhibitor, partial curve, poor fit]"},
      {"smiles": "CC1CCN([C@@H]2[C@H](O)[C@H](CO)O[C@@H]2CN(Cc2ccc(F)cc2)Cc2ccc(F)cc2)CC1", "Potency": "inconclusive: 56.2 µM [inhibitor, partial curve, poor fit]"},
      {"smiles": "O=C1NC(=NC2CCCC2)C2(CCN(CC3CCCCC3)C2)N1c1cccnc1", "note": "(centres undefined)", "Potency": "inconclusive: 79.4 µM [inhibitor, partial curve, poor fit]"},
      {"smiles": "O=C(Nc1ncc(-c2ccccc2)c2c1OCC2)c1ccccc1", "Potency": "inconclusive: 70.8 µM [inhibitor, partial curve]"},
      {"smiles": "CC(C)(C)C(=O)N1CCC2(CC1)CC(c1cccc(C(F)(F)F)c1)=NO2", "Potency": "inconclusive: 79.4 µM [inhibitor, partial curve]"},
      {"smiles": "CCC(=O)N1CCc2[nH]nc(C(=O)NCCCc3ccccc3)c2C1", "Potency": "inconclusive: 35.5 µM [inhibitor, full curve, poor fit]"},
      {"smiles": "COc1ccc(C(=O)N2CCN(c3cc(C(F)(F)F)nc(C)n3)CC2)cc1", "Potency": "inconclusive: 79.4 µM [inhibitor, single point]"},
      {"smiles": "CCCCCNC(=O)C1CCN(c2nccc(Nc3ccccc3F)n2)CC1", "Potency": "inconclusive: 25.1 µM [inhibitor, full curve]"},
      {"smiles": "COc1ccccc1-c1nc(C(=O)N2CCCC2)n2ccncc12", "Potency": "inconclusive: 89.1 µM [inhibitor, partial curve, poor fit]"},
      {"smiles": "COc1ccc(-n2nc(C)c(CCC(=O)N3CCOCC3)c2Oc2ccccc2F)cc1", "Potency": "inconclusive: 56.2 µM [inhibitor, partial curve, poor fit]"},
      {"smiles": "COc1ccc(-c2ccc3c(c2)C(=O)N2CCN(C(=O)CC(C)(C)C)C[C@@H]2C(=O)N3)cc1", "Potency": "inconclusive: 79.4 µM [inhibitor, partial curve, poor fit]"},
      {"smiles": "CCC1Oc2ccc(NC(=O)C3CCCC3)cc2CN(Cc2ccc(F)cc2)C1=O", "note": "(centres undefined)", "Potency": "inconclusive: 79.4 µM [inhibitor, partial curve]"},
      {"smiles": "COC[C@H]1CCCN1Cc1cn(Cc2ccccc2)nc1-c1cc2ccccc2o1", "Potency": "inconclusive: 50.1 µM [inhibitor, partial curve, poor fit]"},
      {"smiles": "CSCC(=O)N[C@H]1CCN2C(=O)c3cc(-c4ccsc4)ccc3NC(=O)[C@H]12", "Potency": "inconclusive: 112 µM [inhibitor, single point]"},
      {"smiles": "CC(=O)N1CCC2(C1)OC(=O)Nc1cnccc12", "note": "(centres undefined)", "Potency": "inactive"},
      {"smiles": "Cc1nn(-c2ccccc2)c2c1C(C)N(C1CCN(C(=O)c3ccccc3F)C1)C2=O", "note": "(centres undefined)", "Potency": "inconclusive: 50.1 µM [inhibitor, partial curve, poor fit]"},
      {"smiles": "CC(C)(C)C(=O)N1CCCN(c2ccnc3ccnn23)CC1", "Potency": "inconclusive: 63.1 µM [inhibitor, full curve]"},
      {"smiles": "CCC1Oc2ccc(NC(=O)c3c(F)cccc3F)cc2CN(CCc2ccc(F)cc2)C1=O", "note": "(centres undefined)", "Potency": "inconclusive: 39.8 µM [inhibitor, full curve, poor fit]"},
      {"smiles": "COc1cc(OC)cc(C(=O)N2CCC(Cc3nc(C(C)C)no3)CC2)c1", "Potency": "inconclusive: 44.7 µM [inhibitor, partial curve]"},
      {"smiles": "Cc1nn(-c2ccccc2)c2c1C(C(C)C)N(C1CN(C(=O)NC(C)C)C1)C2=O", "note": "(centres undefined)", "Potency": "inconclusive: 79.4 µM [inhibitor, single point]"},
      {"smiles": "O=C(c1ccc(F)cc1)N1CCN(C(=O)c2nc3cccnc3n(C3CCCC3)c2=O)CC1", "Potency": "inactive"}
    ]}
  ]
}
